From PubChem BioAssay AID651568 (National Center for Advancing Translational Sciences (NCATS), 2012)
Hit rate of the full screen: of about 1,200 compounds, about 55 (5%) were called active. About 15% were inconclusive and are not listed. Calls follow the shape of the dose curve; as a rule, active = well fitted inhibition curve with a large enough effect; inconclusive = small, poorly fitted or top-dose-only effect; inactive = no such curve, though single readings can be large or run the other way. The list shows a part of the results.

Experiment: qHTS Assay to Find Inhibitors of Chronic Active B-Cell Receptor Signaling: Hit Validation in Renilla Reporter Assay; also: nearly all actives have a fitted effect of over 70% in size
Conditions: TMD8 IkB-Renilla luciferase reporter, NF-kB signaling; series mostly up to 57.5 µM; activity change, negative = inhibition: at the top concentration
In short: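 Dual-Glo luminescence read-out of constitutively expressed IkB-Photinus/Renilla luciferase reporters in ABC-DLBCL lines, used to retest primary hits; reporter enzymes differ from the click beetle luciferases used in the primary screen.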
% is scaled to controls: 0 for no effect and ±100 for the full control effect; potency is read from the fitted curve at half-maximal effect.

SMILES	activity change, negative = inhibition	Potency
CC1=C/C(=N\NC(=S)NCc2ccccc2)CC1	inactive: 4.2%	
COc1cc(C(=O)N/N=C/c2sccc2C)cc(OC)c1OC	inactive: -0.336%	
CCCCC[C@H](O)/C=C/[C@@H]1[C@@H](C/C=C\CCCC(=O)O)[C@@H](O)C[C@H]1O	inactive: -7.9%	
Cc1cc(C)c2nc3sc(C(=O)N4CCOCC4)c(N)c3cc2c1	inactive: -12.7%	
COc1ccc(CCNC(=O)c2cnc3scc(C)n3c2=O)cc1OC	inactive: -10.9%	
CCN(CC)C(=S)NC(=O)c1ccc(F)cc1	inactive: 1.9%	
CCOc1cc(/C=C2\CN(C)C/C(=C\c3ccc(O)c(OCC)c3)C2=O)ccc1O		active: 5.36 µM
CCOC(=O)c1c(C)oc2c1cc(NS(=O)(=O)c1ccc(C(=O)O)cc1)c1ccccc12	inactive: -1.1%	
COc1ccccc1-c1nnc(Nc2nc3c(OC)cccc3s2)o1	inactive: -25.9%	
CC1=C(C(=O)Nc2ccc(CC(=O)NCc3ccc(OC(C)C)cc3)cc2)SCCO1	inactive: -7.74%	
CCc1ccc(NC(=O)C(C)OC(=O)/C=C/c2ccc(O)c(OC)c2)cc1 (stereo unspecified)	inactive: -16.3%	
COc1cc(C(=O)N/N=C(\C)Cc2ccccc2)cc(OC)c1OC	inactive: -0.748%	
CCCSc1nc(C)c(C(C)=O)cc1C#N	inactive: -8.83%	
COCCN(Cc1cc2cc(C)cc(C)c2nc1Cl)C(=O)Nc1ccccc1	inactive: 10.9%	
CCOc1ccc(OCc2ccc(C(=O)N/N=C(\C)c3ccccn3)cc2)cc1	inactive: -3.8%	
CCOC(=O)c1ccc(-c2c(-c3cc(OC)c(OC)c(OC)c3)noc2C)cc1F	inactive: -17.6%	
COc1cc(/C=C/c2ccc3cccc(O)c3n2)cc(OC)c1OC	inactive: -22%	
S=C(Nc1ccccn1)c1ccccn1	inactive: -26.7%	
CCOc1ccccc1N1CSC2=C(C#N)C(c3c(OC)ccc4ccccc34)CC(=O)N2C1 (stereo unspecified)	inactive: -24.8%	
CCCNC(=O)c1ccc(-c2nn(C)c(=O)c3ccccc23)cc1	inactive: -1.09%	
Cc1c(CCC(=O)N2CCC(C(=O)O)(c3ccccc3)CC2)c(=O)oc2cc3oc4c(c3cc12)CCCC4	inactive: -15%	
COc1cc(NC(=O)COC(=O)Cc2ccc(-c3ccccc3)cc2)cc(OC)c1	inactive: -10.2%	

SMILES	activity change, negative = inhibition	Potency
Oc1ccccc1-n1c(-c2ccccc2)ccc1-c1ccccc1	inactive: -21.9%	
COc1cc(C(=O)N/N=C/C2CC=CCC2)cc(OC)c1OC (stereo unspecified)	inactive: 9.85%	
Cc1cc(C)c2nc(C(F)(F)F)nc(NCCCN3CCOCC3)c2c1	inactive: -1.78%	
COc1cc(S(=O)(=O)N2CCCCC2)ccc1NC(=O)/C=C/c1ccccc1	inactive: 4.68%	
COc1ccc(C2=Nn3c(nnc3-c3ccc(OC)cc3)SC2)cc1	inactive: 11.9%	
O=C(OCC(=O)c1ccc[nH]1)c1ccc(Cl)c(Cl)c1	inactive: -0.0787%	
CCC1=Nc2cc(C(=O)NCc3cccnc3)ccc2Sc2ccc(C)cc21	inactive: 2.12%	
CCOc1cccc(C2CC(=O)Nc3cc(OC)c(OC)cc32)c1 (stereo unspecified)	inactive: 5.18%	
CCN(CC(=O)NCc1ccc(F)cc1)C(=O)/C=C/c1ccc(OC)c(S(=O)(=O)NC(C)C)c1	inactive: -3.39%	
COc1cc2c(cc1OC)-c1cc(NC3CCCC3)nc(=O)n1CC2	inactive: -1.28%	
COC(=O)c1cc(C(=O)N2CCN(c3cccc(Cl)c3)CC2)cc([N+](=O)[O-])c1	inactive: -0.459%	
Cc1cc(C(N)=O)nn1-c1c(Cl)cc(Cl)cc1Cl	inactive: 0.801%	
CCOc1ccc(S(=O)(=O)Nc2cc(OC)ccc2OC)cc1	inactive: 21.9%	
COc1cccc(N2CCN(C(=O)c3ccc(CS(=O)c4ccc(Cl)cc4)o3)CC2)c1 (stereo unspecified)	inactive: -26.8%	
COc1ccc(C2CC(c3c(O)cc(C)oc3=O)=NCCS2)c(OC)c1 (stereo unspecified)	inactive: -16.9%	
CC1=CC(C)(C)N2C(=O)C(=O)c3cc(OC(=O)c4ccco4)cc1c32	inactive: 2.98%	
CC(C)n1c(SCC(=O)Nc2ccccc2)nc2c1c(=O)n(C)c(=O)n2C	inactive: -2.3%	
CCN1C(=O)c2cccc3c(S(=O)(=O)Nc4nc(C)cs4)ccc1c23	inactive: -19.2%	
CC(C)N1C(=O)/C(=C\c2nc3ccccc3c(=O)[nH]2)c2ccccc21		active: 23.9 µM
COc1cc2c(cc1OC)C(/C(C#N)=N\O)=NC(C)(C)C2	inactive: 2.79%	
Cc1c(NC(=S)NC(=O)C(c2ccccc2)c2ccccc2)cccc1C(=O)O	inactive: -15.6%	
OCc1ccnc2c(O)cccc12	inactive: 9.15%	

SMILES	activity change, negative = inhibition	Potency
COc1ccccc1-c1cc(C(=O)Nc2cccnc2)no1	inactive: -1.55%	
CCONC(=O)Nc1ccccc1[N+](=O)[O-]	inactive: 0.531%	
CCCCn1c(SCC(=O)c2cc(OC)ccc2OC)nc2cc(S(N)(=O)=O)ccc21	inactive: -0.961%	
COc1cc(-c2noc(C)c2/C=C/c2ccc(N)cc2)cc(OC)c1OC	inactive: -22.7%	
Cc1c(CCC(=O)O)c(=O)oc2cc3oc4c(c3cc12)CCCC4	inactive: -13.6%	
C/C(=N/NC(=O)COc1cc(C)ccc1C(C)C)C(=O)O	inactive: -3.63%	
CCCCN(C(=O)CSc1nc2ccccc2n1CC)C1CCS(=O)(=O)C1 (stereo unspecified)	inactive: 1.42%	
CCCCn1c(-c2csc(C(C)C)c2)n[nH]c1=S	inactive: -0.83%	
COc1cc(/C=N/NC(=O)NC2CCCCC2)ccc1O	inactive: 0.432%	
CC1(C)Cc2c(sc3ncnc(NNC(=S)NCc4ccccc4)c23)CO1	inactive: -1.15%	
COc1cc2c(cc1[N+](=O)[O-])n(C(C)C)c(=O)n2C(C)C	inactive: 2.57%	
CCOc1c(Cl)cc(CNCC(C)C)cc1OC	inactive: 2.79%	
CC(C)COc1ccc(C(=O)Nc2cc(S(=O)(=O)N3CCOCC3)ccc2N2CCCC2)cc1	inactive: 11.9%	
Cc1cccc(NC(=S)N/N=C/C(C)c2ccccc2)c1C (stereo unspecified)	inactive: 4.68%	
CCN(CC)c1ccc2c(C)c(CO)c(=O)oc2c1	inactive: 0.882%	
N#Cc1c(NC(=O)/C=C/c2ccco2)sc2c1CCCC2	inactive: -2.56%	
Cc1ncc(CO)c2c1Oc1nc(-c3ccccc3)nc(SCC(=O)N3CCOCC3)c1C2	inactive: -17.2%	
COCCNC(=S)N/N=C(\C)c1ccc(Cl)s1	inactive: -0.528%	
CC[C@]12c3[nH]c4cc(CCC(=O)N(C)C)ccc4c3CCN1C(=O)[C@@H](CC(=O)NCc1ccco1)C[C@@H]2C(=O)N1CCN(C(=O)c2ccco2)CC1	inactive: 7.44%	
CCOc1c(OC)cccc1C1CC(=O)Nc2cc(OC)c(OC)cc21 (stereo unspecified)	inactive: 9.77%	
Cc1cc(C(=O)N/N=C/c2ccc(N(C)C)cc2)c2ccccc2n1	inactive: 0.431%	
C/C(=N\NC(=O)C(C)n1nc(C)c([N+](=O)[O-])c1C)c1ccccc1O (stereo unspecified)	inactive: -3.57%	

SMILES	activity change, negative = inhibition	Potency
CC1CCCCN1C(=S)NC(=O)c1cccs1 (stereo unspecified)	inactive: 6.78%	
CCOc1ccc(CCNC(=O)c2cc(=O)[nH]c3ccc(S(=O)(=O)N4CCCCC4C)cc23)cc1OCC (stereo unspecified)	inactive: 5.04%	
C=CCOc1ccc2ccccc2c1CNn1c(C)n[nH]c1=S	inactive: 8.77%	
O=C(N1CCN(c2ccccn2)CC1)N1c2ccccc2Sc2ccccc21	inactive: 0.521%	
Cc1c(C(=O)N/N=C/c2ccc(Cl)cc2)[nH]c2ccc(Cl)cc12	inactive: -78.9%	
COc1ccc2c(C#CCCO)c(-c3ccc(S(C)(=O)=O)cc3)sc2c1	inactive: -13.8%	
COc1cc(C(=O)N/N=C(\Cc2ncc[nH]2)c2ccccc2)cc(OC)c1OC	inactive: 3.02%	
N#Cc1c(NC(=O)CSc2ncn[nH]2)sc2c1CCCC2	inactive: -19.3%	
COc1ccc(C(=O)c2cc([N+](=O)[O-])ccc2N2CCOCC2)cc1	inactive: -4.12%	
Cc1cccc(NC(=S)N=Nc2c(O)n(C)c3ccc(S(=O)(=O)N4CCOCC4)cc23)c1	inactive: -23.4%	
C[C@H]1C[C@@H]2[C@H]([C@@H](O)C[C@@]3(C)[C@H]2CC[C@]3(O)C(=O)CO)[C@@]2(C)C=CC(=O)C=C12	inactive: 2.44%	
CCOc1cc(C(=O)N/N=C/C2CC=CCC2)cc(OCC)c1OCC (stereo unspecified)	inactive: -2.2%	
CC(/C=C/c1ccccc1)=N\NC(N)=S	inactive: -1.62%	
COc1cccc(N2CC(O)=C(c3nc4ccccc4s3)C2=N)c1	inactive: 2.59%	
CCOC(=O)N1CCC(NC(=O)CS(=O)(=O)Cc2nc(-c3ccccc3C)oc2C)CC1	inactive: -5.96%	
COc1ccc(/C=N/NC(=O)CCn2cnc(-c3ccccc3)c2-c2ccccc2)cc1OC	inactive: -24.2%	
COc1ccc2c(c1)OC(=O)CC2c1cc(OC)c(OC)c(OC)c1 (stereo unspecified)	inactive: -10.4%	
CCN1C(=O)c2cccc3c(S(=O)(=O)Nc4ccccc4O)ccc1c23	inactive: -19%	
CCN(CC(=O)Nc1ccccc1SC)Cc1nc2ccccc2c(=O)[nH]1	inactive: 1.19%	
CCOC(=O)C1=C(C)c2ccccc2N(C(=O)OC)C1(C)C(=O)OCC (stereo unspecified)	inactive: 0.0176%	
COc1cc(C(=O)c2cocc2C(=O)c2ccc3c(c2)OCO3)cc(OC)c1OC	inactive: -15.6%	
Clc1cncc(Cl)c1N/N=C/c1ccncc1	inactive: -2.19%	

SMILES	activity change, negative = inhibition	Potency
O=C(N/N=C/c1cccs1)c1cc(-c2ccncc2)nc2ccccc12	inactive: -14.9%	
O=C(c1ccc(CS(=O)c2ccccc2Cl)o1)N1CCN(c2ccccc2)CC1 (stereo unspecified)	inactive: -1.35%	
Oc1ccccc1/C=N/Nc1ccnc(SCc2ccccc2)n1	inactive: -2.7%	
CN(C)c1ccc(C(=O)c2ccc(N(C)C)c3ccccc23)cc1	inactive: 26.2%	
N#C/C(=C\c1cn(Cc2ccc(F)cc2)c2ccccc12)C(=O)NCc1ccco1	inactive: -24.2%	
O=C(NCCc1ccccc1)c1coc(=O)c(Br)c1	inactive: -91.9%	
COc1ccc(-c2cc(C(=O)N/N=C(\C)c3cccnc3)c3ccccc3n2)cc1	inactive: -1.73%	
CCCNc1nc(-c2ccccc2)c(C(=O)OCC)cc1C#N	inactive: 0.302%	
CC(=O)Nc1ccc(S(=O)(=O)N2c3ccccc3C(C)=CC2(C)C)cc1	inactive: 4.2%	
COc1ccccc1N1CCN(C(=O)C2c3ccccc3Oc3ccccc32)CC1	inactive: 1.62%	
O=C(Oc1ccc2ccc(OC(=O)N3CCOCC3)cc2c1)N1CCOCC1	inactive: 5.12%	
O=[N+]([O-])c1cc(/C=N/O)ccc1Sc1ccccc1	inactive: 3.47%	
COc1ccc(N2CC(C(=O)N3CCC(c4nc5ccccc5[nH]4)CC3)CC2=O)cc1 (stereo unspecified)	inactive: 0.0753%	
COc1ccc(C2=Nn3c(nnc3-c3ccccc3OC)SC2)cc1OC	inactive: -15.3%	
COc1ccc(/C=C/C(=O)c2cc(F)ccc2OC(=O)c2ccccc2OC)cc1OC		active: 6.75 µM
COC(=O)COc1cccc2c(=O)n(CC(=O)NCc3ccccc3)ccc12	inactive: 3.58%	
CCOC(=O)c1ccc(NC(=S)NNC(C)(C)C)cc1	inactive: 16.3%	
O=c1cnnc(N/N=C/C2CC=CCC2)[nH]1 (stereo unspecified)	inactive: 1.82%	
